# Experimental data from the supplement of paper PMC3334620.
# Whole data set: some 33,000 sequences, median “E-score (-0.5 to 0.5)” near -0.013, cut for the highest 2% near 0.3. Some of the results follow.
# Target: T1, Msn1 (UniProt P22148)
# T1 sequence: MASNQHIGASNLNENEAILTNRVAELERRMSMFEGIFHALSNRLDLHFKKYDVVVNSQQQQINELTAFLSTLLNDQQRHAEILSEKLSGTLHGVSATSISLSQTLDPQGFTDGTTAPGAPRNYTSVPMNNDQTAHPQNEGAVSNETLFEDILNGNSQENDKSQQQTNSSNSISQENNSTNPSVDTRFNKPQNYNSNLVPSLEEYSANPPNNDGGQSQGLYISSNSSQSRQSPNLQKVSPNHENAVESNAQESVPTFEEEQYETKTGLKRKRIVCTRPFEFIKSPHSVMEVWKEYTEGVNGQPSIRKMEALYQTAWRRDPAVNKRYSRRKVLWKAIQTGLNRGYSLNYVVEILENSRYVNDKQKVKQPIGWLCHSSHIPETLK
# Experiment: PBM E-score (8-mer binding enrichment) (E-score (-0.5 to 0.5)); higher = stronger / more preferred TF binding; most listed sequences are background and not binding sites
# Details: protein concentration: 200 nM; construct: GST-full length
# Procedure, shortened: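 Yeast transcription factors carrying a GST tag, as full-length proteins or DNA-binding domains, were produced by PURExpress in vitro transcription/translation. About 100-200 nM protein was applied to universal all-10-mer Agilent arrays, double-stranded by primer extension on fresh or once-stripped slides. Bound protein was detected with fluorescent anti-GST, and scans were normalised with masliner. The Universal PBM Analysis Suite gave each ungapped eight-base word, pooled with its reverse complement, an E-score, a modified Wilcoxon-Mann-Whitney statistic.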
row,Sequence,PBM E-score
1,CGTTGATC,0.0761
2,CCTAGCCC,-0.203
3,AAAGATGT,0.0547
4,GAGGAGCC,-0.205
5,CACAGGCA,-0.24
6,ACGCGTGA,0.147
7,ACTGTGGC,-0.204
8,GGCAGTCA,-0.0497
9,CAAGGCTG,-0.131
10,CGTGCGTC,0.2
11,CATTCACC,0.0597
12,GGTAACTA,0.18
13,CGGCCGGC,-0.0198
14,AACGTACA,0.106
15,CAGGAAAG,-0.145
16,CCTAAAAG,0.0165
17,CTCCACTC,-0.348
18,CGCCTTAG,-0.102
19,AACGCCCA,-0.143
20,CGTTCGGA,0.226
21,CACAGGGA,-0.0953
22,CAGAAACC,-0.0701

row,Sequence,PBM E-score
1,AGCTGTCA,-0.06
2,AACGGCTC,0.0232
3,AAGTGGTG,-0.0982
4,CGCTTTCC,-0.181
5,CAGCCAAA,0.0962
6,TAACGGCA,0.0672
7,AACCTGCG,-0.237
8,ACACTCAC,-0.0194
9,ACTCTTAA,-0.035
10,ACTCATGC,-0.114
11,CCGAGTCG,-0.14
12,CCCACTAC,-0.026
13,ATAGACTA,0.00413
14,ATCCAAGC,-0.214
15,CATCTACA,0.157
16,AAGCAAGT,0.00084
17,CCACGTGC,-0.00789
18,GACTGGCC,-0.255
19,GCATCAAA,-0.00088
20,AAGACTAC,-0.142
21,GGCGGCTA,-0.0252
22,CCTCGCCA,-0.244

row,Sequence,PBM E-score
1,AGATCCTA,0.136
2,AGACGCAC,-0.0633
3,CCACGTGG,-0.276
4,ACCCACGC,-0.134
5,CACCTTGA,-0.1
6,TTCGAGAA,0.136
7,CCGTAAGC,0.00215
8,ACAAATCC,0.265
9,AACACGGG,-0.109
10,GGGTCATA,-0.0644
11,GTGGTCGA,-0.202
12,ACTACTGG,-0.184
13,ATCGAGGG,-0.111
14,CGCAACCC,-0.0602
15,CTGTCAGC,-0.0746
16,CTAGACTA,-0.0108
17,GCCAGTAC,-0.217
18,CTAGGGGC,-0.382
19,CTTAAACA,-0.103
20,GACTGGAC,0.0789
21,GAGGTAGA,-0.145
22,CTTTAGTC,0.0532

row,Sequence,PBM E-score
1,ATGCCGCG,0.0512
2,CGAATGCC,-0.156
3,CCTCATCG,-0.121
4,AATGCACA,-0.0648
5,AGCTAATA,0.074
6,CATCGGAA,0.112
7,ATAACCGC,0.059
8,ATCAGGCG,-0.0724
9,AACCCTTG,-0.094
10,CGTTTAGC,0.0103
11,AAATTGAG,0.0511
12,ATTAGCGG,-0.0852
13,GTGGAAAC,0.164
14,CATAAACA,0.163
15,ACAGGTCT,0.0475
16,CTAGGTTA,-0.0489
17,GAGTACAC,0.133
18,CCTCGTTA,-0.0809
19,CGCACTTC,-0.208
20,AAATTACA,0.192
21,CTTATATA,0.156
22,GCGGCTTA,-0.252

row,Sequence,PBM E-score
1,GTCAAATA,0.196
2,GAGTAGGA,-0.151
3,CAACTAGA,0.0553
4,AAGATATC,-0.0407
5,CTATTTGC,0.091
6,AAGATTTG,-0.0279
7,CAACGTCC,-0.162
8,GATGATGA,-0.107
9,GTAGCCAC,-0.178
10,ATTACTCC,-0.113
11,AAGATTGT,0.196
12,AACTGCGC,0.0166
13,AGGGGAAA,-0.106
14,AATTGGCG,0.054
15,CCGTGACG,0.0942
16,CTTCAGAC,0.079
17,CTATGTTA,0.136
18,CATGTACA,0.3
19,CCGTTTAC,0.101
20,GATTAGAA,-0.0279
21,CTCGCATC,0.0505
22,ATGACCTC,-0.14
